Measurements: PubChem BioAssay AID1347417 (National Center for Advancing Translational Sciences (NCATS), 2020)
Hit rate of the full screen: of about 120,000 compounds, about 5,300 (4.4%) were called active. Inconclusive means that the source gave no clear call. Such entries were picked first, then a sample of the others. Calls follow the shape of the dose curve; as a rule, active = well fitted inhibition curve with a large enough effect; inconclusive = small, poorly fitted or top-dose-only effect; inactive = no such curve, though single readings can be large or run the other way. A potency beside an inconclusive call is a rough fit, not a confirmed value.

Assay: qHTS Primary assay for Inhibitors of Plasmodium falciparum Dd2 growth in vitro; also: nearly all actives have a fitted effect of over 65% in size;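 as to activity, negative = inhibition: plate controls were DMSO vehicle for no effect and reference drug for full effect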
Details: P. falciparum Dd2 growth, SYBR Green, 72 h; activity, negative = inhibition: at 28.9 µM (top of the series) unless noted; series mostly up to 28.9 µM
Method in brief: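 Infected erythrocytes (Dd2, 0.3% parasitemia, 2.5% hematocrit final) are added to compound in RPMI-1640/Albumax II medium, grown 72 h at 37C in low oxygen, then lysed with saponin/Triton-X containing SYBR Green and read by fluorescence.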
Potency is read from the fitted curve at half-maximal effect; tags tell the direction and shape of the fitted curve.

Compound | Potency | activity, negative = inhibition
CC(=O)N1CCC([C@@H]2CN(Cc3ccc(Br)cc3)C[C@H]2CO)CC1 | inconclusive: 7.08 µM [inhibitor, single point] | –
CCCCN(C)C(=O)c1ccc2c(c1)N(Cc1cccc(Cl)c1)C(=O)c1ccccc1S2=O (stereo unspecified) | inconclusive: 0.224 µM [inhibitor, full curve, poor fit] | –
CS(=O)(=O)c1cnc(NCCc2cnc[nH]2)nc1C1CCCNC1 (stereo unspecified) | inactive | –
C[C@@H]1C(=O)O[C@H]2[C@H]1CC[C@@]1(C)Cc3sc(Nc4ccccc4)nc3[C@@H](C)[C@H]21 | inconclusive: 11.2 µM [inhibitor, partial curve, poor fit] | –
CCCN1CCN(CC2=C(C(=O)OCC)C(c3cccc(OC)c3OC)NC(=O)N2)CC1 (stereo unspecified) | inconclusive: 5.01 µM [inhibitor, partial curve] | –
Cc1nc(N2CCN(C(=O)c3ccc(Cl)cc3)CC2)cc(C(F)(F)F)n1 | inconclusive: 17.8 µM [inhibitor, single point] | –
O=C(Nc1cccc(-c2nnc3n2CCCC3)c1)c1ccc(F)cc1 | inconclusive: 5.01 µM [inhibitor, partial curve, poor fit] | –
Cc1ccc(NC(=O)N2CCc3c(sc4c3CCCC4)C2c2ccccc2)cc1F (stereo unspecified) | inconclusive: 17.8 µM [inhibitor, single point] | –
COCCNc1nc2c(S(=O)(=O)c3ccc(C)c(C)c3)nnn2c2ccccc12 | – | inconclusive: -47.4% [inhibitor]
O=C(NCc1ccco1)C1CC(=O)N(c2n[nH]c3cccc(F)c23)C1 (stereo unspecified) | inactive | –
CC(C)C[C@@H]1N[C@H](C(=O)NCc2ccccn2)Cc2c[nH]c3cccc1c23 | inconclusive: 0.0562 µM [inhibitor, full curve, poor fit] | –
COc1ccc(C(=O)N2CCC(N3CC4CCCN4C3=O)CC2)cc1 (stereo unspecified) | inactive | –
COCC1CN(C)CC12CCN(Cc1ccc(OC)c(Cn3ccnc3)c1)CC2 (stereo unspecified) | inconclusive: 3.98 µM [inhibitor, full curve, poor fit] | –
CC(=O)N1CCOc2ccc(CCC(=O)NC(C)Cn3ccc(C)n3)cc2C1 (stereo unspecified) | inactive | –
CCC1=Nc2cc(C(=O)NCCCOC(C)C)ccc2Sc2ccc(C)cc21 | active: 12.6 µM | –
CCC(CC)N1CC[C@H](CO)[C@H](NC(=O)c2ccccc2)C1 | inconclusive: 8.91 µM [inhibitor, single point] | –
COc1ccc(-c2noc(-c3cc(C(C)C)[nH]n3)n2)cc1 | inconclusive: 10 µM [inhibitor, single point] | –
CCN1CCc2c(sc(NC(=O)CSc3ccccc3)c2-c2nc3ccccc3s2)C1 | inconclusive: 17.8 µM [inhibitor, single point] | –
COCC1CN(C2CCC2)CC12CCN(C(=O)c1cccc(OC)c1)CC2 (stereo unspecified) | inconclusive: 10 µM [inhibitor, partial curve, poor fit] | –
COc1ccc(S(N)(=O)=O)cc1C(=O)N1CCOCC1CC(=O)O (stereo unspecified) | inactive | –
O=C(CC1CCCC1)N1CCC(c2nc(C3CCOCC3)no2)CC1 | inconclusive: 17.8 µM [inhibitor, single point] | –
CN1CCN(c2oc(-c3ccc(COc4ccccc4)o3)nc2C#N)CC1 | inconclusive: 12.6 µM [inhibitor, single point] | –

Compound | Potency | activity, negative = inhibition
COc1cccc([S+](=O)([O-])N2CCn3cc(C(=O)Nc4ccc(Cl)cc4Cl)nc3C2)c1 | inactive | –
COC(=O)C1=C(C)NC(=O)NC1c1cn(-c2ccccc2)nc1-c1ccc(OC)c(Cl)c1 (stereo unspecified) | inconclusive: 17.8 µM [inhibitor, single point] | –
CN(C)C(=O)c1ccc(OC2CCN(C(=O)C3CCCCC3)CC2)nc1 | inactive | –
Cc1ccc(-c2cc3c(=O)n(CCNC(=O)C4CCCCC4)ccn3n2)c(C)c1 | inconclusive: 3.16 µM [inhibitor, full curve, poor fit] | –
Cc1cc(=O)n(C(C)C(=O)NCc2ccccc2Cl)c2c1c(C)nn2-c1ccccc1 (stereo unspecified) | inconclusive: 0.891 µM [inhibitor, full curve, poor fit] | –
CNC(=O)[C@@H]1C[C@H](N)CN1S(=O)(=O)c1cccc(OC)c1 | inactive | –
CS(=O)(=O)c1ccc(CN2CCC[C@H]2c2nc(-c3ccc(-c4ccncc4)nc3)no2)cc1 | inconclusive: 12.6 µM [inhibitor, single point] | –
Cn1nccc1C(=O)N1CCC(N2CC3CC(C2)[C@H]2CCCC(=O)N2C3)CC1 (stereo partly specified) | inactive | –
COCCN1CCCCCC(O)c2cc(C(=O)NCc3ccc(F)cc3)ccc21 (stereo unspecified) | inconclusive: 0.708 µM [inhibitor, partial curve, poor fit] | –
CC(C)Oc1cccc(-c2nnc(CCC(=O)NCCOc3ccccc3)c(=O)[nH]2)c1 | inconclusive: 7.94 µM [inhibitor, partial curve, poor fit] | –
O=C(NC1CCCc2c1[nH]c1ccc(F)cc21)c1ccc(Br)o1 (stereo unspecified) | inactive | –
NC(=O)[C@@H]1CN(Cc2ccco2)C[C@H]1COc1ccccc1 | inconclusive: 8.91 µM [inhibitor, partial curve, poor fit] | –
CC(C)c1noc(-c2cn(C3CCCN(C(=O)c4cccc(Cl)c4)C3)nn2)n1 (stereo unspecified) | inconclusive: 3.98 µM [inhibitor, single point] | –
COc1ccc(-c2[nH]c(-c3ccccc3)nc2SCC(=O)Nc2ccc3c(c2)OCO3)cc1 | – | inconclusive: -131% [inhibitor] [at 5.79 µM]
CCn1c(CN2CCCCC2)nc2cc(NC(=O)COc3ccc([N+](=O)[O-])cc3)ccc21 | inconclusive: 11.2 µM [inhibitor, single point] | –
COc1ccc(C(=O)Nc2ccc(-c3noc([C@@H]4CCCN4Cc4c[nH]c5ccccc45)n3)cn2)cc1 | active: 7.94 µM | –
CCC[C@@H]1CN(c2nc(SC)ncc2C(=O)OCC)C[C@H]1N(C)C | active: 12.6 µM | –
CC(C)NC(=O)c1cnc2c(c1)N(C(=O)Cc1cccc(C(F)(F)F)c1)CCC2 | inconclusive: 31.6 µM [inhibitor, single point] | –
O=C(c1ccc(N2CC3CC(C2)[C@H]2CCCC(=O)N2C3)nc1)N1CCN(c2cccc(Cl)c2)CC1 (stereo partly specified) | inactive | –
CC1(C)[C@H]2CC[C@@H](CNC(=O)c3ccc4c(c3)OCO4)[C@@H]1C2 | inconclusive: 12.6 µM [inhibitor, single point] | –
COc1ccc(-c2noc(C(=O)N3CCCC3)c2[C@H](C)O)cc1 | inactive | –
CC(NC(=O)c1ccc(N2Cc3ccccc3Oc3ncccc32)s1)c1ccccc1 (stereo unspecified) | inconclusive: 17.8 µM [inhibitor, single point] | –

Compound | Potency | activity, negative = inhibition
O=C(C1CC1)N1CCc2nc(-c3ccc(Cl)cc3)nc(-c3ccccc3)c2C1 | inactive | –
COc1cc(-c2nnc(SCC(=O)N(C)C3CCCCC3)o2)cc(OC)c1OC | inconclusive: 10 µM [inhibitor, single point] | –
COc1cc(NC(=O)N[C@H](C)c2onc(-c3ccccc3)c2C(=O)O)cc(OC)c1 | inconclusive: 35.5 µM [inhibitor, partial curve, poor fit] | –
O=C1NCCOCCN(C(=O)c2ccncc2)[C@H]2CCC[C@@H]12 | inactive | –
CN(C1CCOCC1)C1CCN(C(=O)c2ccc(Cl)cc2)CC1 | inactive | –
Cc1cccc2c1nc1n2[C@@H](CNC2CCC2)COC1 | inconclusive: 39.8 µM [inhibitor, single point] | –
O=C(Cc1c[nH]c2ncc(-c3cccnc3)cc12)N1CCN(c2ccccn2)CC1 | inconclusive: 10 µM [inhibitor, partial curve, poor fit] | –
O=C(Cc1c[nH]c2ncc(-c3ccccc3)cc12)Nc1cccnc1 | inactive | –
COc1cc2c(cc1NC(=O)C(C)Oc1ccc(Cl)cc1Cl)oc1ccccc12 (stereo unspecified) | inconclusive: 17.8 µM [inhibitor, single point] | –
O=C(NCc1ccc2c(c1)OCO2)c1nc(-c2ccccc2)c2ccccn12 | inconclusive: 10 µM [inhibitor, partial curve, poor fit] | –
CC(C)CCN1C(=O)CC[C@]2(C(=O)NCCc3cccnc3)CCCC[C@@H]12 | inactive | –
CNC1CCOc2ccccc21 (stereo unspecified) | inconclusive: 11.2 µM [inhibitor, partial curve, poor fit] | –
COC[C@H]1C[C@@H](NC(=O)C2CCCC2)[C@H](O)[C@@H]1O | inactive | –
O=C(NCc1nnc2ccc(-c3ccccc3)nn12)c1ccco1 | inactive | –
CCC1c2nccn2CCCN1C(=O)COc1cccc(C)c1 (stereo unspecified) | inconclusive: 15.8 µM [inhibitor, single point] | –
Cc1cc(C)cc(NC(=O)NCC2CCN(Cc3cc(C)ccc3C)CC2)c1 | inconclusive: 11.2 µM [inhibitor, partial curve] | –
COc1ccc2c(c1)CN(CC1CCCCC1)CC[C@H]1COC(=O)N21 | inconclusive: 12.6 µM [inhibitor, single point] | –
COCCn1c(CO)nnc1C1CC(NC(=O)c2cccc(C)c2Cl)C1 (stereo unspecified) | inactive | –
COc1cccc(CC(=O)N2CCC(c3n[nH]c(=O)n3-c3ccc(C)cc3)CC2)c1 | inconclusive: 12.6 µM [inhibitor, single point] | –
COc1ccc(-c2noc(CSc3nnc(-c4ccncc4)n3-c3cccc(C)c3)n2)cc1OC | inconclusive: 4.47 µM [inhibitor, partial curve] | –
COc1ccc(-n2c(=O)c3c(C)c(C)sc3n(Cc3ccc(F)cc3)c2=O)c(OC)c1 | inconclusive: 17.8 µM [inhibitor, single point] | –
Cc1ccc(S(=O)(=O)N2CCCc3cc(NC(=O)c4ccc(C(F)(F)F)cc4)ccc32)cc1 | inconclusive: 15.8 µM [inhibitor, single point] | –
